Measured values reported in ChEMBL document CHEMBL1201862, “PubChem BioAssay data set” (2004).
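Cells were grown in 96-well plates and exposed to each compound for 48 hours at five concentrations; endpoints were interpolated linearly between bracketing concentrations, or set to the highest concentration if not reached. GI50: concentration for 50% inhibition of growth.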 Active and inactive are the calls of the source. Cut-off read from the data, not from the text of the source: active = GI50 up to about 1.1 µM and inactive = higher.

system: NCI-H322M; assay: inhibition of tumour cell growth, NCI panel, 48 h

| Structure (SMILES) | GI50 |
| --- | --- |
| COC(=O)[C@@]12CSC[C@]1(C(=O)OC)N[C@@H](c1ccccc1O)C2 | inactive: > 100 µM |
| Clc1cccc(N2CCN(CCN3CCc4c([nH]c5ccccc45)C3c3cccnc3)CC2)c1 (stereo not given) | inactive: > 61.2 µM |
| O=C(CCC(=O)C1CCC/C1=N/O)Nc1ccc(Cl)cc1 (stereo not given) | inactive: > 100 µM |
| CC(C)(C)c1cc(OCc2nnc3sc(-c4ccc(Cl)cc4)nn23)c(Cl)cc1OCc1nnc2sc(-c3ccc(Cl)cc3)nn12 | inactive: 4.51 µM |
| Cc1c(C)c2c(c(N)c1C#N)C(=O)N(CCc1ccccc1)C2=O | inactive: > 100 µM |
| O=c1[nH]c(=O)n(COCCO)c2ccc(Br)cc12 | inactive: > 100 µM |
| CC(=O)NC1=C(NCCC(C)C)C(=O)c2ccccc2C1=O | inactive: > 50 µM |
| Cn1c2ccccc2c2cc(-c3ccccc3)c3c(c21)C(=O)C=CC3=O | inactive: 19.6 µM |
| O=C(O)CNC(=O)c1ccc2cc(C(=O)N3CC(CCl)c4ccc([N+](=O)[O-])cc43)[nH]c2c1 (stereo not given) | inactive: > 100 µM |
| CCN1CC(C)Cn2c(=O)[nH]c3cc(Br)cc1c32 (stereo not given) | inactive: 48.9 µM |
| CC(C)N(C(=O)C12C3C4C1C1C2C3C41C(=O)C(C)(C)C)C(C)C (stereo not given) | inactive: > 100 µM |
| O=C(O)c1ccc(/C=N/N=C2c3ccccc3-c3ccccc32)cc1 | inactive: > 100 µM |
| CS(=O)(=O)OCCN1CCN(C(=O)c2cccc3c(Nc4ccc(S(=O)(=O)N=C(N)N)cc4)c4ccccc4nc23)CC1 | inactive: > 100 µM |
| CC(=O)NC1C(OCc2ccccc2)OC(CO)C(O)C1OC(C)C(=O)N[C@@H](C)C(=O)N[C@H](CCC(=O)NCCNCCNc1c2ccccc2nc2cccc([N+](=O)[O-])c12)C(N)=O (stereo not given in full) | active: 0.152 µM |
| NC(=O)/N=C1\NC(Cc2ccccc2)C(=O)N1Cc1ccccc1 (stereo not given) | inactive: > 100 µM |
| CCc1nc(N)nc(N)c1-c1ccc(Cl)cc1 [PYRIMETHAMINE] | inactive: > 100 µM |
| N=C(N)NS(=O)(=O)c1ccc(NNc2c3ccccc3nc3c(C(=O)Nc4ccc(S(=O)(=O)Nc5ncccn5)cc4)cccc23)cc1 | inactive: 38.5 µM |
| Cc1ccc(C(O)/C(=N/N)c2nc3ccc([N+](=O)[O-])cc3nc2O)cc1 (stereo not given) | inactive: 68.9 µM |
| Cc1nc2ccccc2n1Cc1ccc(NC(=S)Nc2ccccc2)cc1 | inactive: > 100 µM |
| COC(=O)/C(C#N)=C1\CCC(O)N1C (stereo not given) | inactive: > 100 µM |
| CC1C(c2ccccc2O)c2cc3c(cc2OC1N1CCOCC1)OCO3 (stereo not given) | inactive: 44.6 µM |
| CC1(CCc2ccccc2)CC1(Br)Br (stereo not given) | inactive: > 100 µM |

| Structure (SMILES) | GI50 |
| --- | --- |
| CCOC(=O)C(CS)NC(=O)CCCCCCCC(=O)NC(CS)C(=O)OCC (stereo not given) | inactive: > 100 µM |
| CN1C(=O)C2C(C1=O)C1(O)c3ccccc3C2(N)c2ccccc21 (stereo not given) | inactive: > 100 µM |
| CN1CCCS/C1=C1/SC(=S)N(c2ccccc2)C1=O | inactive: > 100 µM |
| C=C(C)[C@H]1C2=CC(C)=C(O2)[C@@H](O[C@@H]2c3oc(cc3C)[C@H](C(=C)C)[C@H]3C=C(CC[C@H]2C(=C)C)C(=O)O3)[C@H](C(=C)C)CCC2=C[C@H]1OC2=O | inactive: > 100 µM |
| O=C(CC(Cc1ccccc1)c1ccc(Oc2ccccc2)cc1)Nc1cccc(Cl)c1 (stereo not given) | inactive: 7.85 µM |
| Nc1c(S(=O)(=O)O)cc2cc(S(=O)(=O)O)ccc2c1/N=N/c1ccc(-c2ccc(/N=N/c3c(N)c(S(=O)(=O)O)cc4cc(S(=O)(=O)O)ccc34)c(S(=O)(=O)O)c2)cc1 | inactive: > 100 µM |
| O=C(C=P(c1ccccc1)(c1ccccc1)c1ccccc1)CC(=S)CC(=O)C=P(c1ccccc1)(c1ccccc1)c1ccccc1 | inactive: 8.81 µM |
| CCc1nc2c(c(N(C)C)c1C(=O)OC)CCc1ccccc1-2 | inactive: 47.3 µM |
| FC(F)(F)c1nc(-c2ccccc2)oc1Sc1oc(-c2ccccc2)nc1C(F)(F)F | inactive: > 100 µM |
| Cc1ccc(O)c(C2=NNC(c3cccc(Cl)c3)C2)c1 (stereo not given) | inactive: 67 µM |
| COC(=O)C1(N2CCOCC2)CCC([C@@H](c2ccccc2)C(C)[N+](=O)[O-])C1 (stereo not given in full) | inactive: > 100 µM |
| Cc1cccc2c1CC(C1OC(=O)c3c(C)cccc31)C2=O (stereo not given) | inactive: > 100 µM |
| C[Si](C)(OCCS(=O)(=O)O)OC(=C1S(=O)(=O)OCCOS1(=O)=O)c1cccc2ccccc12 | inactive: > 100 µM |
| CC(C)c1ccc2nc3ccc(C(=O)NCCN(C)C)cn3c(=O)c2c1 | inactive: 24.8 µM |
| N#Cc1[nH]c(=O)n(-c2cccc3ccccc23)c1N | inactive: > 10 µM |
| OCCSCCCSCCO | inactive: > 100 µM |
| CC(C)(C)OC(=O)NCCC(=O)NC1(c2cc3ccccc3s2)CCCCC1 | inactive: 19.9 µM |
| O=C1NC2=NN=C(c3ccc(Br)cc3)CN2NC12c1ccccc1-c1ccccc12 | inactive: > 100 µM |
| O=C(O)CCCc1ccc2c(c1)CC1(C2)Cc2cc3c(cc2C1)CCCC3 | inactive: 33 µM |
| O=C1C=C2S[C@H]3C[C@]2(C=C1Br)C1=C(N3)C(=O)c2[nH]cc3c2C1=NCC3 [(+)-DISCORHABDIN B] | inactive: 2.99 µM |
| CC(NC(=O)c1ccc(NP(=O)(OCc2ccc([N+](=O)[O-])o2)N(C)CCCCCl)cc1)c1ccc(OCC2CCCCC2)c(C(N)=O)c1 (stereo not given) | inactive: 13.2 µM |
| O=S(=O)(O)C(O)/C=C/c1ccccc1 (stereo not given) | inactive: > 100 µM |

| Structure (SMILES) | GI50 |
| --- | --- |
| CC(=O)c1ccccc1NCC(=O)Nn1cnc2ccc(S(=O)(=O)Nc3ccccc3C(C)=O)cc2c1=O | inactive: > 100 µM |
| CS(=O)(=O)CSCSSCS(C)(=O)=O | inactive: 53.6 µM |
| Oc1c(Cl)cc(CN(Cc2cc(Cl)c(O)c(Cl)c2)C2CCCCC2)cc1Cl | inactive: > 100 µM |
| O=C(Nc1nc(C23CC4CC(CC(C4)C2)C3)cs1)c1cc2ccccc2oc1=O | inactive: > 100 µM |
| COC1CC(N)C(O)C(C)O1 (stereo not given) | inactive: > 100 µM |
| CN(C)c1ccc(/C=C2\C[N+](C)(C)C/C(=C\c3ccc(N(C)C)cc3)C2=O)cc1 | inactive: 42.1 µM |
| CCCCCCOc1ccc(C(=O)N(C)O)cc1 | inactive: 26.4 µM |
| O=C(/C=C/c1ccccc1Cl)NC1C=Nc2ccc([N+](=O)[O-])cc2NC1 (stereo not given) | inactive: > 100 µM |
| O=C1N2CCc3c([nH]c4ccccc34)C23CC2CCCCC12S3 (stereo not given) | inactive: > 100 µM |
| O=C1/C(=N\O)c2ccccc2S1(=O)=O | inactive: 72.8 µM |
| N#Cc1cnc(N)nc1NCC1(CO)CC(CCc2ccccc2)C1 (stereo not given) | inactive: > 100 µM |
| COCn1cc(C2=C(C)C(=O)C(C)=C(C)C2=O)cn1 | inactive: > 100 µM |
| O=C1CCc2ccccc2O1 [DIHYDROCOUMARIN] | inactive: > 100 µM |
| CC1(C)CC(O)C(C)(C)[C@@H](O)C1 (stereo not given in full) | inactive: > 100 µM |
| O=C(O)C1=C(O)C(C(=O)O)C23CCCCCCCCCCC12C(C(=O)O)C(O)=C3C(=O)O (stereo not given) | inactive: > 100 µM |
| CCCCNc1nc(C#N)c(N)s1 | inactive: > 100 µM |
| COc1ccc(-n2cnc3c(N)nc(N)nc32)cc1 | inactive: > 100 µM |
| Cc1ccc(S(=O)(=O)NC(=O)NCCC(=O)O)cc1 | inactive: > 100 µM |
| CN(C)c1ccc(/C=N\NC(=O)CSCC(=O)N/N=C/c2ccc(N(C)C)cc2)cc1 | inactive: 31.2 µM |
| C=C1c2nc3ccccc3n2C=C(c2ccccc2)N1c1ccc(OC)cc1 | inactive: 34.5 µM |
| CCN(C(=O)N[C@@H](CC(C)C)C(=O)NCC(=O)OC)c1ccccc1 | inactive: > 100 µM |
| COc1ccc(/C=C/CN(C)CCc2ccccc2)cc1OC | inactive: > 100 µM |

| Structure (SMILES) | GI50 |
| --- | --- |
| O=c1ccc2nc3cc(Br)ccc3sc-2c1 | inactive: > 100 µM |
| CC1(C)Oc2ccc3c(=O)cc(-c4cccs4)oc3c2C1C(=O)O (stereo not given) | inactive: > 100 µM |
| COC(=O)CCC(NC(=S)N/N=C/c1cccs1)C(=O)OC (stereo not given) | inactive: > 100 µM |
| COC(=O)N/N=C/c1oc(-c2cccc([N+](=O)[O-])c2)c(-c2cccc([N+](=O)[O-])c2)c1[N+](=O)[O-] | inactive: > 100 µM |
| CC(C)(C)OC(=O)N1CC(CCl)c2ccc(O)cc21 (stereo not given) | inactive: 2.36 µM |
| CC(=O)O[C@H]1[C@@H](OC(C)=O)C(C)(C)/C=C/[C@H](C)C(=O)[C@@]2(OC(C)=O)C[C@@](C)(OC(C)=O)[C@H](OC(C)=O)[C@@H]2[C@H]2OC(=O)CC[C@@]2(OC(=O)c2ccccc2)[C@@H]1OCC(C)C | inactive: 81.8 µM |
| CCC1(O)C(=O)OCc2c1cc1n(c2=O)Cc2cc3cc(OC)c(OC)cc3nc2-1 (stereo not given) | inactive: 87.3 µM |
| Cc1ccc(C(=O)O)c(/C=C2\Cc3ccc(C)cc3C2=O)c1 | inactive: 55 µM |
| CC1(C(=O)Nc2ccc3cc4ccccc4cc3c2)CC2(C)CC(C)(C1)C(O)NC2=O (stereo not given) | inactive: > 100 µM |
| C=CC[C@]12C=C(OC)[C@@H](O)[C@](OC)(C(c3cc(OC)c4c(c3)OCO4)[C@H]1C)[C@H]2OC(C)=O (stereo not given in full) | inactive: > 100 µM |
| O=C(O)c1cc(S(=O)(=O)N/N=C\c2c3ccccc3[n+]([O-])c3ccccc23)ccc1O | inactive: 13.6 µM |
| COc1cc(C=O)ccc1Oc1nnnn1-c1ccccc1 | inactive: > 100 µM |
| COc1ccc(-c2coc3c4c(ccc3c2=O)OCO4)cc1OC | inactive: > 100 µM |
| O=C(O)C1CC(c2ccccc2)=NN1c1ccccc1 (stereo not given) | inactive: > 100 µM |
| Oc1ccccc1CNCc1nc2ccccc2[nH]1 | inactive: 91.4 µM |
| CSCC[C@H](NC(=O)[C@H](CC(C)C)NC(=O)[C@@H](Cc1ccccc1)NC(=O)CNC(=O)[C@@H](NC(=O)[C@H](C)NC(=O)[C@H](Cc1c[nH]c2ccccc12)NC(=O)[C@H](CCC(N)=O)NC(=O)[C@H](N)CC(N)=O)C(C)C)C(N)=O | inactive: > 12.5 µM |
| O=S(=O)(N1CCCCN(S(=O)(=O)C(F)(F)F)CCCN(S(=O)(=O)C(F)(F)F)CCCCN(S(=O)(=O)C(F)(F)F)CCCN(S(=O)(=O)C(F)(F)F)CCCCN(S(=O)(=O)C(F)(F)F)CCCN(S(=O)(=O)C(F)(F)F)CCCCN(S(=O)(=O)C(F)(F)F)CCC1)C(F)(F)F | inactive: > 31.6 µM |
| Cc1cc(Cc2cc(C)c(NC(=O)C(=O)C3CCC4=C(SC5C=CC=CC5N4)C3=O)c(C(C)C)c2)cc(C(C)C)c1NC(=O)C(=O)C1CCC2=C(SC3C=CC=CC3N2)C1=O (stereo not given) | inactive: > 100 µM |
| CN(c1nc(=[N+](C)C)ss1)C1CCCCC1 | inactive: > 100 µM |
